# From the RNAGym collection of RNA variant scans (doi:10.7554/elife.90254)
# Read counts are not given, so values of variants with three or more changes are uncertain.
# B1: LINE1-full (parent)
# chain: UACGUAGGUGGUUUUCCCCUGAUAGUGCUAAGGGGGCCUGGAAGUUUGGACUGGGCAGAGCUCAACACAGCGUGGCAAAGUGGCUGUGGCUAGACUGCCUCUCUGGAUUCCUCGUCACUCAGCAGGGCAUCUCUGAGAGAAAUGCC
# Variants of: B1
# Test: self-cleavage, relative activity (ratio to wild type); higher = more cleavage; in vitro, sequencing; the parent is a self-cleaving ribozyme
row,Variant,self-cleavage
1,A24G G35C A42U U102A,1.16
2,G25C C68U U96C U102A,0.12
3,U26A U73C C145U,2.34
4,U26C A65G U112C,0
5,G25A A30G U115C,0
6,U26C U91A U115C,1.47
7,A24U A121U A136G,1.68
8,U26A U112A A141G,1.01
9,A24G G86A A142G,0.03
10,A24U U39A A42G U130C,0.94
11,U26C A64G A141G U143C,0.45
12,U26C A30U A124G,1.21
13,U26C A69G U87A A136G A142G,0
14,A24G U52A G72A,1.23
15,A24G U62A A77G,0.06
16,U26A C38A U47C,0.78
17,U26C U39A U47C A69G A78G,1.53
18,U26A A67U A140G,0.08
19,U26C A57G U119C,0.97
20,A24G U52C U87C,1.38
21,G27A A43G U45A U119A,2.55

row,Variant,self-cleavage
1,A24G U104C U132C U143G,2.42
2,G25U G49C U62C,0.07
3,U26G U52C G88A A140G,0.14
4,A24G G34U G75A U112C A138G,1.09
5,G25C U52A C98A,0.44
6,G25A A94G U115A,0.16
7,U26C U85C C113U A121G,0.29
8,G27U A50G U104A A107C,1.67
9,U26A A77G U100A,0.63
10,U26C U39A C111U U115C,1.6
11,U26A C71U A77G,0.57
12,U26C U104C U115C,1.84
13,U26C U46C U87A U130C,0.23
14,A24U A78G U81C,0.27
15,U26C U45C U81A A136G,2.3
16,U26A U47C U62C A79G A121U U134C,0
17,G25A U96C U132A,0.08
18,U26C C51U U62A U100C U109C A140G,0.07
19,U26C U39A U46C A64G G105U U132C,0.38
20,U26C G35A C146U,1.12
21,U26A A43G A94U,0.11

row,Variant,self-cleavage
1,G27A U112C A129U,0.68
2,U26A U45C A67G A140U,0.68
3,U26C U45C U132C,0.57
4,U26C U52C A79G A121U U143C,1.41
5,G27U U52C A64G U73C C95A,0.02
6,U26C A69C G93A C103A A136G,0.02
7,U26A U100C U112C,1.84
8,U26A U96G C113U,0.08
9,G25A A92C U104G,0
10,U26G A50C U130C,1.41
11,U26C A57G G114A,0.99
12,U26C C56G U87C G125U,0.03
13,U26A A30G U62A A136G U143A,0.34
14,U26C A124U G126U,1.39
15,C28A G32A A77G U112A,1.18
16,A24U U81C G114A,1.84
17,G25C U91A A138U,0.97
18,G27A A124G G135A,1.3
19,G25A U112C A142G,1.48
20,U26C A78G C113U,1.47
21,G25A U39C A42G U46C,0.71

row,Variant,self-cleavage
1,C28A G32U A67C,0
2,U26C U52A U102C A138G A141G,1.1
3,A24U A64G U87C,0
4,U26C C51U U91C C111A,0.77
5,U26A G32U G33A A77G U109A,0.77
6,A24G G35A A42G A94G A107G,0
7,U26C U45C A92G U134C C146U,0.22
8,U26A A57U U100C,0.21
9,G27A A57G A65G A129G,0
10,U26C U46C A124G,0.29
11,U26G U100A U104C A129U,1.23
12,U26C G40A A79G U87A U132C,0.07
13,U26C A142G U143C,1.74
14,U26C A142G U143G,0.63
15,U26A G34A U143A,0.82
16,U26C A31G U87C,0.71
17,U26C A67G A141G,0.54
18,U26A G135U A140U,1.35
19,G25A G44U A57U G74A U102C U115C,0.12
20,U26A A67U A142G,0.06
